Test results published in the RNAGym collection of RNA variant scans (doi:10.1073/pnas.2313332121).
This sample is rich in variants without activity.

B1: TPR 5TU (parent)
chain: GGAUCUUCUCGAUCUAACAAAAAAGACAAAUCUGCCACAAAGCUUGAGAGCAUCUUCGGAUGCAGAGGCGGCAGCCUUCGGUGGCGCGAUAGCGCCAACGUUCUCAACUAUGACACGCAAAACGCGUGCUCCGUUGAAUGGAGUUUAUCAUG

Variants of: B1
Experiment: polymerase ribozyme fitness, log enrichment relative to wild type (log ratio); higher = more active; in vitro selection for triplet polymerase activity
Outline: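 After PCR construction and transcription, each subunit's mutant library from a heterodimeric triplet polymerase ribozyme was annealed with a biotinylated primer, the partner subunit and triplets. Incubation was frozen, at −7 °C, and extended constructs were gel-excised, bound to streptavidin beads and amplified by RT-PCR, in one selection round done in triplicate. Fitness is the logarithm of a genotype's enrichment divided by that of the wild type, from inverse-variance-weighted replicate averages of Illumina-sequenced inputs and outputs. The base of the logarithm is 2, and genotypes needed ≥10 input reads and ≥1 read per output.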

Variant | polymerase ribozyme fitness (log ratio)
U6G A17G C32U A41U C54U G74C C85A | ≤ -4.2
U6G A17U A21U A49C C51U C79U G84A C114G | ≤ -4.2
U6G A17U C18G C51A G74A G83A A97G G124U U144C | ≤ -4.2
U6G A19G U55A G71A G80A G92C A107G | ≤ -4.2
U6G A19U C27A A30U A41C C87G U144G | ≤ -4.2
U6G A20C A28U C38U C43U G70U G86U C96U G128A A142C | ≤ -4.2
U6G A20U C43U A47U G59A G65C A73C G88U C96A A142G | ≤ -4.2
U6G A21C C75U U144A | -0.201
U6G A21C U33G U44G C57G C99U U104G C105U U135G U151G | ≤ -4.2
U6G A21U U56G G74C A113U | ≤ -4.2
U6G A23U A40U G42A U77C G83U G140A | ≤ -4.2
U6G A23U C51A U55G A115U | ≤ -4.2
U6G A24C U33A U56G G68C C69U G92A C96G G136U G143U U145A | ≤ -4.2
U6G A24U C79A G84U C85U G117U G141A | ≤ -4.2
U6G A26C G83U A89U | -3.85
U6G A26C G86C C87U C123G | ≤ -4.2
U6G A26U C93U | -2.39
U6G A26U G84C | -2.97
U6G A28U A41G G88C G143A U144C U146G | ≤ -4.2
U6G A28U U44A C96G | ≤ -4.2
U6G A29C C79A C96G | ≤ -4.2

Variant | polymerase ribozyme fitness (log ratio)
U6G A30C | ≤ -4.2
U6G A30G A40C C57G C75A C95U G136A | ≤ -4.2
U6G A37G C38G C95U C116U G136U U139A U146C | ≤ -4.2
U6G A39U C54A U55A A115G A150U | ≤ -4.2
U6G A40C | 1.13
U6G A40U U53A U55G C76A A97U A106G A147C A150C | ≤ -4.2
U6G A41G G42A U56A A73G G83U G88A C96G A115G | ≤ -4.2
U6G A47C C87A U148G | ≤ -4.2
U6G A47U U61G C69A | ≤ -4.2
U6G A49C U55C | ≤ -4.2
U6G A49U A73U C87U | ≤ -4.2
U6G A52C C96U C131A A142C | ≤ -4.2
U6G A52G G71C C93U C96A U104A | ≤ -4.2
U6G A52U A64G G84A | ≤ -4.2
U6G A60C A73C C87A C118U | ≤ -4.2
U6G A73U G81C A98C C99U U144C | -3.62
U6G A120C G136C | -3.69
U6G C8A C14G C93A A107G | ≤ -4.2
U6G C8A C54U G65C C85A C95U C114A G141U | ≤ -4.2
U6G C8A U56A C75A C95U A119U G141U U145G | ≤ -4.2
U6G C8G C14U A20U U56A G92U A137C G140A | ≤ -4.2

Variant | polymerase ribozyme fitness (log ratio)
U6G C8G C18U C54U C131U | -3.56
U6G C8U A23U | ≤ -4.2
U6G C10U A17U A20G C38G C85U G88A U90C | ≤ -4.2
U6G C14G A16C A20U A21U G42A U61A A64G G71A C85U C87U C129U G136A | ≤ -4.2
U6G C14G A21U C51U U55A U78G G83U A113G A138C | ≤ -4.2
U6G C14U A26U G42C G50A U55A A60U G94A U101C A110U G133U G141A U145A | ≤ -4.2
U6G C14U A26U G42C G50A U55A A60U G94A U101C A110U G133U U146C | ≤ -4.2
U6G C14U C51A A52G U56A A60U C93G A97G U145A | ≤ -4.2
U6G C14U G42A C87U U104G C125U | ≤ -4.2
U6G C14U U44A A47C C69A | ≤ -4.2
U6G C18G C36U C96G A98G | -2.92
U6G C27A A30C G74A C95G C103A C132G | ≤ -4.2
U6G C27G U61A G88U | ≤ -4.2
U6G C32A C36G C75A U82C G84U C85G C87U | ≤ -4.2
U6G C35G C95A C99U U102A U111C | ≤ -4.2
U6G C35U C76A C87U | -2.63
U6G C35U G50U U148A | ≤ -4.2
U6G C38A G59A C87G A91G | ≤ -4.2
U6G C38U U44A G81C A120C G140U | ≤ -4.2
U6G C51U C85U C95A C103G G140A | ≤ -4.2
U6G C75G C85A U101G C105A A119U | ≤ -4.2

Variant | polymerase ribozyme fitness (log ratio)
U6G C79A C93G C105U U135A A138G | ≤ -4.2
U6G C79A G80A U104G A107U C118U U127G | ≤ -4.2
U6G C87U A110G G133U G140U | ≤ -4.2
U6G G11A | -0.786
U6G G11A A20U U44G C87G C132U A138C | ≤ -4.2
U6G G11C C14U C93A | ≤ -4.2
U6G G25C A37C G65C G86C A98U A122U | ≤ -4.2
U6G G25C C54A C95A G140A U146G | ≤ -4.2
U6G G25U A49C C93U G128U | ≤ -4.2
U6G G25U C54G C76U C87A C99G U104G U151A | ≤ -4.2
U6G G34C A91U | ≤ -4.2
U6G G34U C96A U104G U135A | ≤ -4.2
U6G G46A A113U C125U G136U U146C | ≤ -4.2
U6G G50U G83U G117U G133U U151A | ≤ -4.2
U6G G59U C87U C114A G140C | ≤ -4.2
U6G G62C A97U C108G | ≤ -4.2
U6G G80A U82G G141U | 0.34
U6G G80C C149A | ≤ -4.2
U6G G83C | -0.223
U6G G83U C87U C93U G100U A107U | ≤ -4.2
